For part of its entries the source gives two or more results. This list holds those alone. An entry can have further records. The records of an entry are repeats in other runs, samples, wells, individuals or studies. Brackets with × say how often a value occurs here.
Tested on: A498 complex spheroid viability
Assay: Anticancer human tumor A498 cell line growth inhibition;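 further: spheroids exposed to agents for seven days before readout; 100% = DMSO vehicle-treated spheroids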
Conditions: stronger effect = lower value
From the text: Multicellular complex tumor spheroid response to LSD1 Inhibitor Iadademstat in combination with a variety of drugs and investigational agents in selected tumor cell lines
The current study was undertaken to assess response to LSD1 inhibitors in combination with standard-of-care drugs and investigational agents in solid tumor complex spheroid models as well as in the K-562 leukemia. Complex spheroids include a stromal component modeled by human endothelial cells (HUVEC) and fibroblasts modeled by human mesenchymal stem cells (MSCs). The concentration ranges selected for each drug and investigational agent were based upon clinically achievable concentrations if the clinical Cmax of the agent was known.
Compounds. The drugs and investigational agents used in this study are listed on Table 1. All of the agents used, including staurosporine (NSC755774) and gemcitabine (NSC613327), were obtained from the Developmental Therapeutics Program, NCI. FDA-approved anticancer drugs are available from the NCI at http://dtp.nci.nih.gov/branches/dscb/oncology_drugset_explanation.html. Drugs and investigational agents were >95% pure by proton nuclear magnetic resonance (NMR) and liquid chromatography/mass spectrometry (LC/MS). […] If the clinical Cmax for an agent had not been determined, the highest concentration tested was 10 microM. […]

NC1CC1c1ccc(-c2cccc(O)c2)cc1 (configuration not stated)
viability, T/C (compound alone 1 µM): 93, 96.5, 92.8, 111, 101 (4×), 102, 109 (4×), 92, 98.4, 103, 97, 104, 89.7, 87.3, 92.4, 116, 93.9, 90.2, 94.4%
viability, T/C (compound alone 3.16 µM): 89, 90.4, 82.6, 105, 100, 94.5, 108, 90.8, 107 (2×), 102, 101 (3×), 92.2, 92.3, 90, 92.8, 112, 91.9, 109, 86.8, 111, 91.4, 89.8%

From PubChem BioAssay AID1918947 (Molecular Pharmacology Branch, DTP, NCI, 2023)
